Results reported in the supplement of paper PMC12217912.
The list shows a part of the results. The full chains were built here from the parent and the listed change. Values near 0.05 are background.

B1: TEV protease; numbered along this chain (parent)
chain: MGESLFKGPRDYNPISSSICHLTNESDGHTTSLYGIGFGPFIITNKHLFRRNNGTLVVQSLHGVFKVKDTTTLQQHLVDGRDMIIIRMPKDFPPFPQKLKFREPQREERICLVTTNFQTKSMSSMVSDTSCTFPSGDGIFWKHWIQTKDGQCGSPLVSTRDGFIVGIHSASNFTNTNNYFTSVPKNFMELLTNQEAQQWVSGWRLNADSVLWGGHKVFMVKPEEPFQPVKEATQL

Variants of: B1
Assay: raw area under fraction-flipped curve 0-4 h after induction (AUC4h, not background-subtracted), DNA-recorder readout of cleavage of the substrate (dimensionless); higher = more cleavage of the substrate by the protease variant
Conditions: temperature: 34 °C; time window: 0-4 h after rhamnose induction
Method: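 In vivo DNA recorder in E. coli TOP10(DE3) ΔrhaA at 34 °C. Each TEVp single-site mutant (parent TEVp 0) is paired with a single-site variant of the 7-mer TEVs (canonical ENLYFQ|S). The substrate sits between flexible linkers in a Bxb1-sfGFP-TEVs-SsrA fusion, so cleavage stabilises Bxb1 and speeds flipping of a recombination array, read by NGS. The value is the raw area under the fraction-flipped curve over 0-4 h after rhamnose induction (AUC4h), with ≥20 reads per time point. It is not background-subtracted; inactive controls average about 0.047.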
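Also: Bxb1 expression induced with 0.2% (w/v) L-rhamnose at OD600 near 0.5, cultures sampled hourly, flipped fraction per protease–substrate barcode pair counted by paired-end Illumina sequencing.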

Variant | area with substrate EALYFQS | area with substrate ECLYFQS | area with substrate EDLYFQS | area with substrate EELYFQS | area with substrate EFLYFQS | area with substrate EGLYFQS | area with substrate EHLYFQS | area with substrate EILYFQS | area with substrate EKLYFQS | area with substrate ELLYFQS | area with substrate EMLYFQS | area with substrate EPLYFQS | area with substrate EQLYFQS | area with substrate ERLYFQS | area with substrate ESLYFQS | area with substrate EVLYFQS | area with substrate EWLYFQS | area with substrate ETLYFQS | area with substrate EYLYFQS
S4D | 0.152 | 0.126 | 0.147 | 0.154 | 0.121 | 0.133 | 0.0615 | 0.108 | 0.116 | 0.209 | 0.114 | 0.173 | 0.156 | 0.126 | 0.122 | 0.121 | 0.11 |  | 
T30C | 0.111 | 0.113 | 0.129 | 0.103 | 0.137 | 0.0936 |  | 0.0977 | 0.109 | 0.0909 | 0.107 | 0.14 | 0.125 | 0.113 | 0.102 | 0.111 | 0.106 | 0.111 | 0.1
K216H | 0.124 | 0.0778 | 0.125 | 0.107 | 0.11 | 0.0798 |  | 0.0812 | 0.109 |  | 0.155 |  | 0.116 | 0.124 | 0.102 | 0.0927 | 0.0712 |  | 
K216G | 0.0822 | 0.0631 | 0.0598 |  | 0.0643 |  | 0.0552 | 0.0325 | 0.0598 | 0.0585 | 0.0776 | 0.0751 | 0.0686 | 0.0654 | 0.0785 | 0.0694 |  |  | 0.0757
K216S | 0.102 | 0.1 |  |  |  |  |  | 0.0717 |  |  |  |  |  | 0.0926 | 0.114 | 0.0699 |  |  | 
T72S | 0.134 | 0.098 | 0.11 | 0.101 |  |  |  |  |  |  | 0.103 |  | 0.092 | 0.0952 | 0.0924 | 0.0775 |  | 0.109 | 
E103G | 0.0977 | 0.0897 | 0.126 | 0.115 | 0.0735 | 0.0731 |  | 0.0816 | 0.0829 | 0.0702 | 0.0896 | 0.0965 | 0.121 | 0.0975 | 0.0947 | 0.0836 |  | 0.0896 | 
G80C | 0.121 | 0.0927 | 0.181 |  |  | 0.102 | 0.123 | 0.0996 | 0.0316 | 0.0838 | 0.117 | 0.102 | 0.136 |  | 0.0911 | 0.093 | 0.107 |  | 
G80N | 0.105 | 0.0895 |  |  | 0.0991 | 0.0973 |  | 0.0966 | 0.101 | 0.119 |  |  | 0.11 | 0.156 | 0.117 | 0.102 | 0.155 | 0.176 | 
G80P | 0.0873 |  | 0.114 |  |  |  |  |  |  |  | 0.0741 |  | 0.0748 |  | 0.0594 |  | 0.0851 |  | 
W144K | 0.106 | 0.0737 | 0.1 |  | 0.0917 | 0.0696 | 0.0834 |  | 0.0771 |  |  |  |  | 0.068 | 0.0852 |  | 0.0351 | 0.104 | 
L5E | 0.17 | 0.107 | 0.169 | 0.14 | 0.136 | 0.0942 |  | 0.0875 | 0.11 | 0.0895 |  |  | 0.114 | 0.117 | 0.0451 | 0.098 | 0.133 | 0.111 | 
L48E | 0.0645 | 0.0492 |  | 0.0511 | 0.068 |  |  | 0.0574 |  | 0.0363 | 0.0577 |  |  | 0.062 | 0.0629 | 0.0412 | 0.0595 |  | 
R81N | 0.0747 | 0.0781 | 0.126 | 0.143 | 0.0892 | 0.068 |  | 0.0597 |  | 0.0583 | 0.0744 | 0.104 | 0.0929 | 0.0687 | 0.0706 |  |  | 0.0745 | 0.0445
H168I | 0.055 | 0.0572 | 0.0653 | 0.0553 |  | 0.0687 | 0.0741 | 0.0565 |  | 0.0582 | 0.0562 | 0.0919 | 0.0583 | 0.0617 | 0.0601 | 0.0592 | 0.0475 | 0.0607 | 0.0569
G28T | 0.118 | 0.0869 | 0.0969 | 0.127 | 0.0725 | 0.0856 | 0.114 | 0.0792 | 0.1 | 0.0687 | 0.0958 | 0.11 | 0.0242 | 0.0844 | 0.0961 | 0.0797 |  |  | 
P40I | 0.101 | 0.0963 | 0.104 | 0.1 |  | 0.0802 | 0.0989 |  | 0.108 | 0.0819 | 0.119 |  | 0.099 | 0.0926 | 0.0948 | 0.0711 | 0.0743 |  | 
P40C | 0.102 | 0.112 | 0.129 | 0.141 | 0.115 |  | 0.0957 | 0.0893 | 0.0999 | 0.113 | 0.101 | 0.118 | 0.129 | 0.0985 | 0.112 | 0.0897 | 0.0971 | 0.111 | 0.11
V165E | 0.0493 | 0.058 | 0.0582 | 0.0352 | 0.0271 | 0.0451 | 0.0497 |  | 0.0446 | 0.0506 | 0.054 | 0.0521 | 0.0549 | 0.055 | 0.0655 | 0.0547 | 0.0551 |  | 
D11W | 0.114 | 0.0995 | 0.136 | 0.136 | 0.11 | 0.0991 | 0.0777 | 0.103 | 0.0978 | 0.104 | 0.104 | 0.113 | 0.0989 | 0.07 | 0.0812 | 0.105 | 0.0776 | 0.145 | 0.108
S18C | 0.129 | 0.0926 | 0.127 | 0.186 | 0.0629 |  | 0.086 | 0.147 | 0.105 | 0.107 | 0.12 | 0.103 | 0.126 | 0.13 | 0.104 | 0.0805 | 0.104 |  | 0.116
G8S | 0.0969 | 0.0946 | 0.0691 |  |  |  | 0.0859 |  | 0.132 |  |  |  | 0.106 |  | 0.102 | 0.0836 |  |  | 
D128A | 0.147 | 0.12 |  | 0.114 | 0.128 |  |  | 0.112 |  |  |  |  | 0.161 |  | 0.121 | 0.0508 | 0.13 |  | 
C152A | 0.0645 | 0.0739 | 0.0868 | 0.0922 | 0.0929 | 0.0742 | 0.0968 | 0.0717 | 0.0814 |  |  |  | 0.0909 | 0.0854 | 0.0684 | 0.0755 |  |  | 
V220R | 0.118 | 0.107 | 0.146 | 0.111 | 0.0977 | 0.111 | 0.0715 | 0.0738 | 0.106 |  | 0.103 |  | 0.126 | 0.101 | 0.118 | 0.0943 | 0.0993 | 0.104 | 
